{"source": "PubChem BioAssay AID651820", "about": "(National Center for Advancing Translational Sciences (NCATS), 2012)", "note": "About 12,000 (3.5%) of roughly 340,000 compounds were called active. This list was built around the results that the source calls inconclusive (neither active nor inactive); the mix of calls is not that of the screen. Calls follow the shape of the dose curve; as a rule, active = well fitted inhibition curve with a large enough effect; inconclusive = small, poorly fitted or top-dose-only effect, or another doubt; inactive = no such curve, though single readings can be large or run the other way. Potencies of inconclusive entries are left out as doubtful fits. Some compounds were tested as several samples or in several runs, with calls that do not always agree. % is scaled to controls: 0 for no effect and ±100 for the full control effect; potency is read from the fitted curve at half-maximal effect; tags tell the direction and shape of the fitted curve."}
{"experiment": "qHTS Assay for Inhibitors of Hepatitis C Virus (HCV)", "details": "Huh7.5.1 HCVcc-Cre (HCVcc is cell-culture hepatitis C virus) infection, luciferase reporter, 44 h; activity change, negative = inhibition: at 41.8 µM (top of the series)", "outline": "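1,000 cells/well; 4 h culture; + compound; + HCVcc-Cre (~0.5 moi); 44 h; luciferase substrate, RT 15 min; read 15 sec.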"}
{"smiles": "COCCNc1nnc(SCC(=O)Nc2sc3c(c2C(=O)c2ccccc2)CCCC3)s1", "Potency": "active: 2.51 µM"}
{"smiles": "COC(=O)c1nc(NC(=O)C(C)C)n[nH]1", "activity change, negative = inhibition": "inactive: -5.86%"}
{"smiles": "COCCCNC(=O)c1ccc(NS(C)(=O)=O)cc1", "activity change, negative = inhibition": "inactive: -5.29%"}
{"smiles": "COc1cccc(C=NNc2nnc(NN=Cc3cccc(OC)c3OC)c3ccccc23)c1OC", "Potency": "inconclusive [inhibitor, single point]"}
{"smiles": "O=C(CSc1nnc(COc2ccc(Cl)cc2)n1Cc1ccco1)c1ccccc1F", "Potency": "inconclusive [inhibitor, single point]"}
{"smiles": "CCOc1ccc(CC(=O)Nc2ccc(-c3ccc4nnc(C)n4n3)cc2)cc1", "activity change, negative = inhibition": "inactive: -9.93%"}
{"smiles": "O=C(NNc1ccccn1)c1ccccc1CC[N+](=O)[O-]", "activity change, negative = inhibition": "inactive: -9.82%"}
{"smiles": "O=C(NCc1nc2ccccc2[nH]1)C1=C[C@H](c2ccc3c(c2)OCO3)C[C@H](OCCCCO)O1", "Potency": "inconclusive [inhibitor, single point]"}
{"smiles": "O=C(Cc1cccc2ccccc12)Nc1cc(Cl)ccc1C(=O)O", "activity change, negative = inhibition": "inactive: 9.4%"}
{"smiles": "COc1ccc(C(=O)NNc2ccccc2)cc1", "activity change, negative = inhibition": "inactive: 24.3%"}
{"smiles": "Cc1ccc(NC(=O)COc2coc(CN3CCc4ccccc4C3)cc2=O)cc1Cl", "Potency": "inconclusive [inhibitor, single point]"}
{"smiles": "CC(=O)Nc1nc2c(C)cc(NC(=O)C3CCCCC3)cc2s1", "activity change, negative = inhibition": "inactive: -0.795%"}
{"smiles": "CCc1ccc(-c2csc(NC(=O)C3=COCCO3)n2)cc1", "Potency": "inconclusive [inhibitor, single point]"}
{"smiles": "CCOC(=O)c1cccc(N/C=C/C(=O)c2ccc(OC)c(OC)c2)c1", "Potency": "inconclusive [inhibitor, full curve, poor fit]"}
{"smiles": "COc1cc(C2C3=C(CCCC3=O)Nc3[nH]n(-c4ccccc4)c(=O)c32)ccc1O", "note": "(stereo not drawn)", "Potency": "inconclusive [inhibitor, partial curve]"}
{"smiles": "N#CC1=C(SCC(=O)c2ccc(Cl)cc2)NC2=C(C(=O)CCC2)C1c1ccco1", "note": "(stereo not drawn)", "Potency": "inconclusive [inhibitor, partial curve]"}
{"smiles": "COc1ccc(NC(=O)CN2CCCN(S(=O)(=O)c3ccc(F)cc3)CC2)c(OC)c1", "Potency": "inconclusive [inhibitor, single point]"}
{"smiles": "C(=NN=C1c2ccccc2-c2ccccc21)c1ccc2c(c1)OCO2", "Potency": "inconclusive [inhibitor, partial curve]"}
{"smiles": "CCN(CC)S(=O)(=O)c1ccc(N2CC(C(=O)NCc3ccc4c(c3)OCO4)CC2=O)cc1", "note": "(stereo not drawn)", "Potency": "inconclusive [inhibitor, partial curve]"}
{"smiles": "CCN(CC(=O)NCc1cccs1)S(=O)(=O)c1ccc(C(C)C)cc1", "activity change, negative = inhibition": "inactive: -24.9%"}
{"smiles": "Cc1nnc(NCc2cccc(Cl)c2)c2ccccc12", "Potency": "inconclusive [inhibitor, single point]"}
{"smiles": "Cc1ccc(C(C(=O)NCc2ccco2)N(C(=O)Cn2nnc3ccccc32)c2ccccc2)o1", "note": "(stereo not drawn)", "activity change, negative = inhibition": "inactive: -4.41%"}
{"smiles": "S=C(S)OC1CC2CC1C1CCCC21", "note": "(stereo not drawn)", "activity change, negative = inhibition": "inactive: 45.6%"}
{"smiles": "COC(=O)c1ccc(COc2ccccc2[N+](=O)[O-])o1", "activity change, negative = inhibition": "inactive: -11.4%"}
{"smiles": "Cc1ccc(C2=NS(=O)(=O)N(C)C(C(=O)Nc3cc(C)n(CC(=O)N4CCC(C)CC4)n3)=C2)cc1", "Potency": "inconclusive [inhibitor, partial curve]"}
{"smiles": "COc1cccc(C(=O)COc2cccc(NC(=O)c3ccco3)c2)c1", "Potency": "inconclusive [inhibitor, single point]"}
{"smiles": "O=C(N/N=C/c1ccc(-c2cccc([N+](=O)[O-])c2)o1)c1ccc([N+](=O)[O-])cc1", "Potency": "active: 10 µM"}
{"smiles": "COc1ccc(CC(=O)Nc2c(C(=O)N3CCN(c4ncccn4)CC3)oc3ccccc23)cc1", "activity change, negative = inhibition": "inactive: -13.9%"}
{"smiles": "COc1cccc(CN(C)S(=O)(=O)c2ccccc2Br)c1", "Potency": "inconclusive [inhibitor, partial curve]"}
{"smiles": "O=C(Nc1cccc(S(=O)(=O)N2CCOCC2)c1)c1ccc(Cl)nc1", "Potency": "inconclusive [inhibitor, single point]"}
{"smiles": "Cc1cc(=O)n2nc(N3CCC(C(=O)NC(C)c4ccccc4)CC3)sc2n1", "note": "(stereo not drawn)", "Potency": "inconclusive [inhibitor, single point]"}
{"smiles": "Cn1nc(C(=O)Nc2nc3ccccc3[nH]2)c2ccccc2c1=O", "Potency": "inconclusive [inhibitor, partial curve, poor fit]"}
{"smiles": "CC1CCN(CCc2nc3cc(NC(=O)COc4ccc([N+](=O)[O-])cc4)ccc3n2C)CC1", "Potency": "inconclusive [inhibitor, single point]"}
{"smiles": "c1ccc(CN2CCC(N3CCN(Cc4ccc5c(c4)OCO5)CC3)CC2)cc1", "Potency": "inconclusive [inhibitor, full curve, poor fit]"}
{"smiles": "COc1cccc(Cn2c(=S)[nH]c3ccc(N4CCOCC4)cc3c2=O)c1", "Potency": "inconclusive [inhibitor, single point]"}
{"smiles": "OC(CNCCCN1CCCCC1)COc1ccccc1", "note": "(stereo not drawn)", "Potency": "active: 10 µM"}
{"smiles": "COc1cc(NC(=O)NCc2ccco2)ccc1-c1ccc(NC(=O)NCc2ccco2)cc1OC", "Potency": "active: 11.2 µM"}
{"smiles": "CC(=O)OCC1OC(OCc2cn(C[C@H]3CC[C@@H]([C@@H]4CC[C@H](Cn5cc(COC6OC(COC(C)=O)C(OC(C)=O)C(OC(C)=O)C6OC(C)=O)nn5)O4)O3)nn2)C(OC(C)=O)C(OC(C)=O)C1OC(C)=O", "note": "(stereo partly drawn)", "Potency": "inconclusive [inhibitor, single point]"}
{"smiles": "COc1cc2c3cc1Oc1cc(ccc1O)C[C@@H]1c4c(cc(OC)c(O)c4Oc4ccc(cc4)C[C@H]3N(C)CC2)CCN1C", "Potency": "active: 7.94 µM", "activity change, negative = inhibition": "inactive: 11.9% [at 8.37 µM]"}
{"smiles": "Cc1ccc(NC(=O)c2ccc(-c3nn(C)c(=O)c4ccccc34)cc2)cc1", "Potency": "active: 12.6 µM"}
{"smiles": "Cc1cccc(NS(=O)(=O)c2cc3c4c(c2)CCC(=O)N4CCC3)c1", "Potency": "inconclusive [inhibitor, partial curve, poor fit]"}
{"smiles": "O=C(CN(c1ccc(Br)cc1)S(=O)(=O)c1ccc(Cl)c([N+](=O)[O-])c1)NCCc1ccccc1", "Potency": "inconclusive [inhibitor, partial curve, poor fit]"}
{"smiles": "O=C1Nc2ccc(Br)cc2C(c2ccccc2Cl)=NC1O", "note": "(stereo not drawn)", "Potency": "inconclusive [inhibitor, partial curve]"}
{"smiles": "COC(=O)C1=C(Nc2ccccc2NC(=O)CCCC(=O)O)CSC1", "activity change, negative = inhibition": "inactive: 8.95%"}
{"smiles": "O=C(O)c1cccc(S(=O)(=O)N2CCN(c3ccccn3)CC2)c1", "activity change, negative = inhibition": "inactive: 3.84%"}
{"smiles": "Cn1cccc1/C=N/N1CCN(Cc2cccc3ccccc23)CC1", "Potency": "inconclusive [inhibitor, single point]"}
{"smiles": "CCC(C)NC(=O)c1cc2c(=O)n(CC)c3ccccc3c2s1", "note": "(stereo not drawn)", "Potency": "inconclusive [inhibitor, partial curve]"}
{"smiles": "Cc1ncc(CN2CCC(C(=O)Nc3cccc(-c4cscn4)c3)CC2)cn1", "Potency": "inconclusive [inhibitor, single point]"}
{"smiles": "Cc1ccc(S(=O)(=O)Cn2nnnc2C(CC(C)C)N2CCN(C(=O)c3ccco3)CC2)cc1", "note": "(stereo not drawn)", "Potency": "inactive"}
{"smiles": "CCN(Cc1cc(=O)n2ccsc2n1)c1cccc2ccccc12", "Potency": "inconclusive [inhibitor, single point]"}
{"smiles": "COc1ccc2c(c1)C(=O)N(c1ccccc1)C(=O)C2", "Potency": "inconclusive [inhibitor, single point]"}
{"smiles": "O=C(CN1C(=O)NC2(CCCC2)C1=O)Nc1nc(-c2ccc(F)c(F)c2)cs1", "Potency": "active: 3.98 µM"}
{"smiles": "CCOc1ccc(CNC(=O)CS(=O)(=O)Cc2nc(-c3ccc(OC)cc3)oc2C)cc1", "Potency": "inconclusive [inhibitor, full curve]"}
{"smiles": "Cc1ccc(Cl)cc1N1CCN(C(=O)Cn2ccc3ccccc3c2=O)CC1", "Potency": "inconclusive [inhibitor, single point]"}
{"smiles": "c1ccc(Sc2nc(N3CCCCC3)nc(N3CCCCC3)n2)nc1", "Potency": "active: 10 µM"}
{"smiles": "O=C(CNC(=O)c1ccccc1)NCC(O)c1ccc([N+](=O)[O-])cc1", "note": "(stereo not drawn)", "activity change, negative = inhibition": "inactive: -6.86%"}
{"smiles": "Cc1cc(OCC(=O)O/N=C(\\N)c2ccccc2)cc(C)c1Cl", "activity change, negative = inhibition": "inactive: -19.9%"}
{"smiles": "COc1ccc(-c2ocnc2C(=O)N2CCN(C(c3ccccc3)c3ccccc3)CC2)cc1", "Potency": "inconclusive [inhibitor, single point]"}
{"smiles": "COc1cc(C(=O)Nc2cccc(S(=O)(=O)N3CCCC3)c2)c([N+](=O)[O-])cc1OC", "Potency": "inconclusive [inhibitor, partial curve]"}
{"smiles": "Cc1ccccc1COC(=O)CCC1=NS(=O)(=O)c2ccccc2N1", "Potency": "inconclusive [inhibitor, single point]"}
{"smiles": "C/C(=N\\NC(=O)CSCc1ccccc1Cl)c1cccc(NC(=O)c2ccccc2)c1", "Potency": "inconclusive [inhibitor, single point]"}
{"smiles": "COc1ccc(N(S(=O)(=O)c2ccccc2)S(=O)(=O)c2ccccc2)c(N)c1", "Potency": "inconclusive [inhibitor, single point]"}
{"smiles": "COc1ccc2oc(C(=O)OCC(=O)N(C)CC(=O)Nc3ccc(C)cc3)c(C)c2c1", "Potency": "inconclusive [inhibitor, partial curve, poor fit]"}
{"smiles": "O=C(NC1CC1)C1=C[C@@H](c2csc3ccccc23)C[C@@H](OCc2ccc(CO)cc2)O1", "activity change, negative = inhibition": "inactive: -5.65%"}
{"smiles": "Cc1ccc(N=Nc2cc(C)ccc2N)cc1", "Potency": "active: 3.16 µM"}
{"smiles": "CCCC1=Nc2cc(C(=O)NCCCN3CCOCC3)ccc2Sc2ccccc21", "Potency": "inconclusive [inhibitor, partial curve]"}
{"smiles": "CCN(CC)c1nc(SCCOC(=O)Nc2ccccc2)nc(N(CC)CC)n1", "Potency": "inconclusive [inhibitor, full curve, poor fit]"}
